# In the supplement of paper PMC10126150:
# Values marked as one replicate rest on one cluster of the flow cell; about a third of the high ones do not repeat.
# System: ATP
# Test: switch fluorescence ratio, 500 uM ATP over buffer (Cy3 cluster intensity, sum of 5 cycles each) (fold (ratio)); higher = stronger signal-on switching upon ATP binding; sequences stand for … in TCGTCGGCAGCGTCAGATGTGTATAAGAGACAGTTTTTTTTTTTTTTTTTTTTTTTTT…TC
# Conditions: aptamer strand: ATP DNA aptamer (quencher-CACCTGGGGGAGTATTGCGGAGGAAGG + anchor), 100 nM annealed; ATP concentration: 500 uM; one replicate
# Summary of the method: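 Exposure to 500 uM ATP lasted 15 min at 22 °C before imaging, and a selection-buffer image was taken beforehand, for Cy3-labelled switching-strand clusters on a modified Illumina MiSeq flow-cell annealed to 100 nM quencher-labelled ATP aptamer. Five buffer/ATP cycles were run with NaOH stripping and re-annealing between them. The fluorescence ratio per cluster is summed target-cycle over summed buffer-cycle Cy3 intensity, averaged per switch-domain sequence. Clusters outside 100-1000 RFU were excluded.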
row,Sequence,switch fluorescence ratio
1,TAACAGTTA,1.01
2,TAACATATT,0.988
3,TAACATTAGC,1.01
4,TAACATTGCA,0.996
5,TAACCAGAGT,1
6,TAACCATACA,1.14
7,TAACCCCTGG,1.17
8,TAACCGCACA,2.54
9,TAACCTCCAT,1.02
10,TAACCTTTT,1.08
11,TAACGACGGC,1.09
12,TAACGAGGGT,1.1
13,TAACGATAGC,1.06
14,TAACGCTAAG,1.03
15,TAACGCTCTT,0.972
16,TAACGGAGGA,0.976
17,TAACGGCCTT,1.06
18,TAACGGTGGT,1.02
19,TAACGTAAAA,1.09
20,TAACTACGG,1.17
21,TAACTCGGTC,1.05
22,TAACTGGGAA,0.992
23,TAACTGTATG,0.96
24,TAACTTCGAA,0.988
25,TAACTTCGGG,1.02
26,TAACTTTAGA,1.01

row,Sequence,switch fluorescence ratio
1,TAACTTTGTG,1.01
2,TAAGAACAAG,0.985
3,TAAGAATAAG,1.07
4,TAAGAATATT,1.07
5,TAAGAATTCT,0.976
6,TAAGACCATT,1.14
7,TAAGACTGAC,0.984
8,TAAGAGTAGC,0.977
9,TAAGATCCGA,1.04
10,TAAGATCGTC,1.03
11,TAAGCATTTT,0.989
12,TAAGCCACTG,1.04
13,TAAGCCCGCA,1.08
14,TAAGCCTTGC,1.15
15,TAAGCGGGAA,1.02
16,TAAGCGTCCG,1.01
17,TAAGCTGTCC,1.14
18,TAAGCTTAGA,0.97
19,TAAGGAGTG,0.916
20,TAAGGATAAG,0.972
21,TAAGGATTCG,1
22,TAAGGCCTAA,0.982
23,TAAGGGAGTC,1.03
24,TAAGGGCATG,0.982
25,TAAGGGCCTC,1.02
26,TAAGGTCACG,1.01

row,Sequence,switch fluorescence ratio
1,TAAGGTCTCT,1.02
2,TAAGGTGTTC,1.02
3,TAAGTACGTA,1.09
4,TAAGTAGAGA,0.977
5,TAAGTATCTA,1.02
6,TAAGTCCAAG,0.999
7,TAAGTGATTA,0.975
8,TAAGTTGACA,1
9,TAATAAATAG,0.995
10,TAATAACGAG,1.02
11,TAATAACGGT,1.01
12,TAATACATGG,1.06
13,TAATACGGAA,1.19
14,TAATACGGCA,1.08
15,TAATACGGT,0.967
16,TAATAGCGAA,1.01
17,TAATAGGGTC,0.978
18,TAATATATAA,0.987
19,TAATCACACT,1.03
20,TAATCAGCA,1.03
21,TAATCATTGT,1
22,TAATCGACGA,1.03
23,TAATCTATGG,0.986
24,TAATCTGTAG,1.01
25,TAATGAGAGA,0.958
